Some of the results follow. The energies were worked out here from pooled read counts, against the library average; single values are noisy.
target: T1, Pho4 (S. cerevisiae) (UniProt P07270); assay: relative binding free energy (BET-seq); higher = weaker binding; settings: reference: library average
T1 sequence: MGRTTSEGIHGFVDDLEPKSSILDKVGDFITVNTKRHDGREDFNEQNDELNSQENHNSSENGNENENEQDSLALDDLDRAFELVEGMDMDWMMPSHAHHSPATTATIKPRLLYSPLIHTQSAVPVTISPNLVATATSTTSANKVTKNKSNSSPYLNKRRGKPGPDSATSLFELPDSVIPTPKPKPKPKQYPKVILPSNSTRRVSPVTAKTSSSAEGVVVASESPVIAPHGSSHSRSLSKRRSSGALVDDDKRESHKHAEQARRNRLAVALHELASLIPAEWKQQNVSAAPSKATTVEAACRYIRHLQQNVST

Row | Sequence | relative binding free energy
1 | TGCGCCACGTGTGGAT | -0.06 kcal/mol
2 | TGGAACACGTGGATTT | 0.09 kcal/mol
3 | TTAATCACGTGGTTCT | 0.11 kcal/mol
4 | GTAGGCACGTGCGTAG | -0.05 kcal/mol
5 | TTTGTCACGTGGAACA | 0.14 kcal/mol
6 | CGGTACACGTGTTTAT | -0.01 kcal/mol
7 | TATAGCACGTGATGCG | 0.04 kcal/mol
8 | GCGCGCACGTGGTTGT | -0.01 kcal/mol
9 | GAGATCACGTGGGATA | 0.2 kcal/mol
10 | TAAATCACGTGGGGTG | -0.11 kcal/mol
11 | AGAGTCACGTGTGTAA | 0.1 kcal/mol
12 | GACTGCACGTGTGTTG | 0.03 kcal/mol
13 | GCAGGCACGTGACGGG | 0.16 kcal/mol
14 | GGAGACACGTGTAGTT | 0.01 kcal/mol
15 | TTGCTCACGTGTGCAG | 0.38 kcal/mol
16 | TCGTTCACGTGAGTGA | 0.36 kcal/mol
17 | GCGGCCACGTGGGTGG | -0.24 kcal/mol
18 | TACGGCACGTGTAAGG | 0.12 kcal/mol
19 | ATCTTCACGTGGAAGG | 0.41 kcal/mol
20 | TGAGACACGTGGATAG | -0.04 kcal/mol
21 | TCAGACACGTGTGGTT | 0.1 kcal/mol
22 | CGGGGCACGTGTTAGG | -0.09 kcal/mol
23 | ATATACACGTGAGTTT | 0.12 kcal/mol

Row | Sequence | relative binding free energy
24 | TTTGTCACGTGTTCGA | 0.09 kcal/mol
25 | CGTTGCACGTGATTTA | 0.01 kcal/mol
26 | TCGGCCACGTGTGGGA | 0.05 kcal/mol
27 | ATCGTCACGTGTGATT | 0.11 kcal/mol
28 | AGAAGCACGTGAGGAG | 0.17 kcal/mol
29 | ATGCTCACGTGATTGG | 0.32 kcal/mol
30 | CAGATCACGTGGGGTG | 0.04 kcal/mol
31 | TTAATCACGTGGACTG | 0.2 kcal/mol
32 | TTGGACACGTGGAGCT | 0.04 kcal/mol
33 | ATGATCACGTGAGCGG | 0.26 kcal/mol
34 | AGAAGCACGTGTGTGT | -0.1 kcal/mol
35 | GGGCACACGTGGTGGC | 0.05 kcal/mol
36 | CGGGCCACGTGATGGG | 0.09 kcal/mol
37 | TAAGTCACGTGTGAAG | 0.2 kcal/mol
38 | GGGGTCACGTGCGAGA | 0.1 kcal/mol
39 | GTATCCACGTGGCGGG | 0.01 kcal/mol
40 | GTGTGCACGTGGGAAG | 0.02 kcal/mol
41 | CATTACACGTGGGATG | 0.15 kcal/mol
42 | TAGGTCACGTGGGTAA | -0.04 kcal/mol
43 | TTGAGCACGTGTGCTT | 0.11 kcal/mol
44 | TTTTACACGTGGGGGT | 0.02 kcal/mol
45 | ATATTCACGTGAATGG | 0.14 kcal/mol
46 | AGAAGCACGTGGAGGT | 0.06 kcal/mol

Row | Sequence | relative binding free energy
47 | TTATGCACGTGATAGG | 0.13 kcal/mol
48 | GGTCGCACGTGTTTGT | -0.02 kcal/mol
49 | GGTATCACGTGCTCGG | 0.13 kcal/mol
50 | GGGGGCACGTGGCCAG | -0.25 kcal/mol
51 | TTCTACACGTGATGGG | 0.1 kcal/mol
52 | TTTTGCACGTGGGGAT | -0.02 kcal/mol
53 | TTAAACACGTGAGGGG | 0.18 kcal/mol
54 | CGAGCCACGTGGTGTG | -0.22 kcal/mol
55 | GAGGACACGTGATCGG | 0.23 kcal/mol
56 | GATCGCACGTGCGGTT | 0 kcal/mol
57 | TCGATCACGTGTTATG | 0.13 kcal/mol
58 | GTAGTCACGTGGTCGA | 0.04 kcal/mol
59 | GATTTCACGTGTGCAT | 0.41 kcal/mol
60 | GGCGCCACGTGTTGGG | 0.03 kcal/mol
61 | AGGGGCACGTGTCGTT | -0.1 kcal/mol
62 | ATTTACACGTGGTTTT | -0.01 kcal/mol
63 | TAGGTCACGTGAGTAG | 0.32 kcal/mol
64 | CTGTTCACGTGGCTGG | 0.1 kcal/mol
65 | TGGTGCACGTGTGAAA | 0.13 kcal/mol
66 | TTACTCACGTGATTGG | 0.21 kcal/mol
67 | TTTATCACGTGTTTGG | 0.19 kcal/mol
68 | ACGAGCACGTGTAGGT | -0.24 kcal/mol
69 | GTAGCCACGTGCGGGG | -0.12 kcal/mol

Row | Sequence | relative binding free energy
70 | GGGCTCACGTGTAGCG | 0.19 kcal/mol
71 | AAATACACGTGAGTTG | 0.2 kcal/mol
72 | GTTGGCACGTGGATCA | -0.03 kcal/mol
73 | CGTCGCACGTGTGGTG | -0.06 kcal/mol
74 | GGGTGCACGTGGATCT | 0.14 kcal/mol
75 | GGGTGCACGTGGAAGA | 0.09 kcal/mol
76 | TCGGGCACGTGAAATT | 0.26 kcal/mol
77 | TAAATCACGTGAGAGT | 0.33 kcal/mol
78 | GGATTCACGTGTTGGC | 0.26 kcal/mol
79 | GTGTTCACGTGTTGAT | 0.22 kcal/mol
80 | GGGTTCACGTGGCGTG | 0.21 kcal/mol
81 | TAGGGCACGTGTGCTT | -0.13 kcal/mol
82 | TATTTCACGTGCGGAG | 0.23 kcal/mol
83 | AGTAACACGTGGGTGG | -0.05 kcal/mol
84 | CTGTTCACGTGGACGG | 0.45 kcal/mol
85 | ATGAGCACGTGGGCAT | -0.33 kcal/mol
86 | TAATTCACGTGTAAGA | 0.28 kcal/mol
87 | GGTCACACGTGGATTG | 0.06 kcal/mol
88 | TTATGCACGTGATAGC | 0.12 kcal/mol
89 | TTAACCACGTGAGTTT | 0.33 kcal/mol
90 | TTGGTCACGTGTAACT | 0.2 kcal/mol
91 | AGCTGCACGTGGTGTC | -0.16 kcal/mol
92 | ATCTTCACGTGGTGTA | 0.12 kcal/mol

Row | Sequence | relative binding free energy
93 | CTTGGCACGTGGTAGA | -0.11 kcal/mol
94 | ATGAACACGTGTTAGG | 0.18 kcal/mol
95 | AGTAACACGTGGGTTT | 0.01 kcal/mol
96 | GGGGACACGTGGGTCA | 0.03 kcal/mol
97 | AATAGCACGTGCGTGG | -0.1 kcal/mol
98 | ATTGACACGTGATGAG | 0.09 kcal/mol
99 | TTGGGCACGTGCTGAG | -0.02 kcal/mol
100 | ATTTACACGTGTGGCA | 0.08 kcal/mol
101 | AGTAACACGTGATGGC | 0.14 kcal/mol
102 | GTAGTCACGTGGCCGG | 0.04 kcal/mol
103 | TAGGCCACGTGCGGGG | -0.19 kcal/mol
104 | ATTGGCACGTGCGAGG | -0.14 kcal/mol
105 | TGATTCACGTGAGAAT | 0.31 kcal/mol
106 | TCTTTCACGTGTAGGG | 0.26 kcal/mol
107 | ATCTGCACGTGTTTTG | -0.03 kcal/mol
108 | TAGTACACGTGCTTGG | -0.03 kcal/mol
109 | AGCGGCACGTGTCTGG | -0.16 kcal/mol
110 | TAGATCACGTGGGTCT | 0.17 kcal/mol
111 | ATGTGCACGTGGTAGG | -0.12 kcal/mol
112 | TACTTCACGTGAATTT | 0.58 kcal/mol
113 | CGTGTCACGTGTTTTG | 0.05 kcal/mol
114 | TCGGTCACGTGAGGGG | 0.27 kcal/mol
115 | ATTGTCACGTGTGTAT | 0.11 kcal/mol
